Test results reported in the BET-seq Pho4 binding data (Le et al. 2018).
The list shows a part of the results. These are noisy estimates, calculated here from bound and input reads.

Target: T1, Pho4 (S. cerevisiae) (UniProt P07270)
T1 sequence: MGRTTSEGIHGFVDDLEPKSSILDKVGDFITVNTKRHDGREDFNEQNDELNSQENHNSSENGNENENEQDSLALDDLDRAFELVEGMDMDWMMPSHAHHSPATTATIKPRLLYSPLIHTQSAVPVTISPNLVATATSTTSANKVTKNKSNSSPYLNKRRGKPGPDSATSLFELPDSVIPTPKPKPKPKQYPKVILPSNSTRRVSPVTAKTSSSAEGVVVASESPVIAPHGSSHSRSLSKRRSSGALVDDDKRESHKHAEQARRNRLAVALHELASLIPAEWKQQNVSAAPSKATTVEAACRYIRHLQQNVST
Assay: relative binding free energy (BET-seq); higher = weaker binding
Conditions: reference: library average

Row | Sequence | relative binding free energy
1 | AGTATCACGTGGACTT | 0.29 kcal/mol
2 | CGGGACACGTGATTAG | 0.12 kcal/mol
3 | ATCGTCACGTGGGGTA | -0.11 kcal/mol
4 | TTGGCCACGTGTTTAG | -0.11 kcal/mol
5 | AGTTTCACGTGGCCAT | 0.21 kcal/mol
6 | GCTTACACGTGGGTCG | 0.08 kcal/mol
7 | TGCAGCACGTGGGATA | -0.12 kcal/mol
8 | GTAAGCACGTGGAGTC | 0.16 kcal/mol
9 | CGTGGCACGTGGGATC | -0.16 kcal/mol
10 | TGTTACACGTGCGCGT | -0.14 kcal/mol
11 | GTAAACACGTGGGCTA | 0.04 kcal/mol
12 | GCGGGCACGTGCGGTT | -0.07 kcal/mol
13 | AGGGGCACGTGGTGCC | -0.1 kcal/mol
14 | TTTGTCACGTGTTGGG | 0.15 kcal/mol
15 | GGCGTCACGTGCGTGG | 0.05 kcal/mol
16 | TATGACACGTGAGAGT | 0.23 kcal/mol
17 | GGTTTCACGTGTATTC | 0.29 kcal/mol
18 | GTGAGCACGTGTAGCT | -0.12 kcal/mol
19 | TTTGACACGTGTACTG | -0.1 kcal/mol
20 | TGTCTCACGTGGCGGT | 0.24 kcal/mol
21 | ATAGACACGTGTGCGG | -0.01 kcal/mol
22 | CGGTTCACGTGGAGGA | 0.27 kcal/mol
23 | CTTTGCACGTGAGGTT | 0.24 kcal/mol

Row | Sequence | relative binding free energy
24 | TGTATCACGTGGTCGG | -0.03 kcal/mol
25 | TTTTACACGTGTTTGG | 0.2 kcal/mol
26 | GGCGACACGTGGTTAG | 0.13 kcal/mol
27 | GGGAGCACGTGTGACG | -0.12 kcal/mol
28 | ATTCGCACGTGGGATT | -0.08 kcal/mol
29 | CTAGGCACGTGTCTTG | -0.05 kcal/mol
30 | GAATGCACGTGTAGTG | 0.01 kcal/mol
31 | GTATTCACGTGGTTAA | 0.17 kcal/mol
32 | GGGGACACGTGAGGTT | 0.22 kcal/mol
33 | TCTGGCACGTGTGGTA | -0.05 kcal/mol
34 | TGTAGCACGTGTAACT | 0.05 kcal/mol
35 | AGGAGCACGTGATTAT | 0.07 kcal/mol
36 | CTGTACACGTGGTGCG | 0.03 kcal/mol
37 | TGAGTCACGTGGGCAG | -0.06 kcal/mol
38 | ATATGCACGTGTTTAC | 0.05 kcal/mol
39 | CGGGGCACGTGTGAAT | 0.05 kcal/mol
40 | TATTGCACGTGTTTTT | 0.09 kcal/mol
41 | AGGGTCACGTGGGCAA | -0.11 kcal/mol
42 | GGCCGCACGTGTGGGC | 0.09 kcal/mol
43 | CGCGTCACGTGGTCGG | -0.09 kcal/mol
44 | GCTAGCACGTGGGGTA | -0.24 kcal/mol
45 | ATGTTCACGTGATGCT | 0.25 kcal/mol
46 | AATCTCACGTGTAGTG | 0.24 kcal/mol

Row | Sequence | relative binding free energy
47 | GGCGTCACGTGTATGT | 0.25 kcal/mol
48 | AGAATCACGTGGCTGG | 0.18 kcal/mol
49 | GTATGCACGTGATTAA | -0.01 kcal/mol
50 | GGAGTCACGTGGTACT | 0.08 kcal/mol
51 | CTATACACGTGGTTGT | 0.09 kcal/mol
52 | AGTTTCACGTGTGCTG | 0.24 kcal/mol
53 | TAAGGCACGTGGGCGC | -0.3 kcal/mol
54 | GTCTGCACGTGTGGCT | 0.08 kcal/mol
55 | AGTTTCACGTGGTGCA | 0.3 kcal/mol
56 | CTTGACACGTGATTTT | 0.2 kcal/mol
57 | TTTTGCACGTGCTTTA | -0.01 kcal/mol
58 | TGATTCACGTGTCGTG | 0.28 kcal/mol
59 | TATCGCACGTGTGCGT | -0.02 kcal/mol
60 | TACGTCACGTGGGCTG | -0.01 kcal/mol
61 | CGGTTCACGTGTTGCT | 0.31 kcal/mol
62 | GGTTGCACGTGAAGTG | 0.31 kcal/mol
63 | TGAGTCACGTGGAGTT | 0.2 kcal/mol
64 | ATCAACACGTGGAGGT | 0.09 kcal/mol
65 | GACGGCACGTGGTGTT | -0.08 kcal/mol
66 | TGGGACACGTGGGAAT | -0.04 kcal/mol
67 | CTTGGCACGTGGGAAA | -0.16 kcal/mol
68 | ATAAGCACGTGGTTCT | -0.18 kcal/mol
69 | GGTTACACGTGAGGGA | 0.4 kcal/mol

Row | Sequence | relative binding free energy
70 | TGAGTCACGTGAGTTA | 0.27 kcal/mol
71 | AGGGGCACGTGGCAAA | -0.15 kcal/mol
72 | TAGTGCACGTGTTGTG | -0.08 kcal/mol
73 | TGGTGCACGTGGGTAT | -0.03 kcal/mol
74 | AAGGACACGTGTTTAT | 0.17 kcal/mol
75 | AAATTCACGTGCAGGT | 0.28 kcal/mol
76 | ATGGACACGTGGTATG | -0.06 kcal/mol
77 | TTCGTCACGTGAGTGC | 0.26 kcal/mol
78 | GGAGGCACGTGGTTGG | -0.16 kcal/mol
79 | GTGTGCACGTGAGGTG | 0.25 kcal/mol
80 | GTGGACACGTGAAGGC | 0.33 kcal/mol
81 | TATTTCACGTGAGTGC | 0.49 kcal/mol
82 | ATTGACACGTGGGAGA | -0.16 kcal/mol
83 | GCGGGCACGTGACGGG | 0.05 kcal/mol
84 | TCTTTCACGTGTCTGT | 0.14 kcal/mol
85 | CGTTTCACGTGCGTGG | 0.2 kcal/mol
86 | CTGGGCACGTGGATCG | -0.09 kcal/mol
87 | GGGAGCACGTGGAGCA | -0.16 kcal/mol
88 | GACCTCACGTGGGGGT | 0.14 kcal/mol
89 | TGCTACACGTGTTGTG | 0.16 kcal/mol
90 | AGATACACGTGCGTTT | 0.01 kcal/mol
91 | AGATTCACGTGCGGTA | 0.21 kcal/mol
92 | TGAGTCACGTGCTGCT | 0.08 kcal/mol

Row | Sequence | relative binding free energy
93 | TGTTTCACGTGGATAG | 0.34 kcal/mol
94 | AAGATCACGTGAGTTT | 0.42 kcal/mol
95 | TATTACACGTGTGCGT | -0.01 kcal/mol
96 | TTTGACACGTGCCGTT | 0.02 kcal/mol
97 | AAGTTCACGTGAGTTG | 0.38 kcal/mol
98 | AATTGCACGTGGAAGT | -0.1 kcal/mol
99 | GGAGGCACGTGGCGTT | -0.22 kcal/mol
100 | AGGAACACGTGTGATG | 0.03 kcal/mol
101 | TTTGGCACGTGAGTGT | 0.11 kcal/mol
102 | AATTGCACGTGCGGTG | 0.07 kcal/mol
103 | GTCGGCACGTGATTGT | 0.23 kcal/mol
104 | TTTGTCACGTGAATAA | 0.29 kcal/mol
105 | ATAGACACGTGTTGCG | 0.04 kcal/mol
106 | AGTAACACGTGAGCGG | 0.15 kcal/mol
107 | ACTGACACGTGAAGGT | 0.22 kcal/mol
108 | TTGCGCACGTGCGAGT | -0.07 kcal/mol
109 | GGGGACACGTGGCGCT | -0.12 kcal/mol
110 | TGAACCACGTGATGTT | 0.29 kcal/mol
111 | TTTTACACGTGTAGAA | 0.14 kcal/mol
112 | TATGACACGTGGTTAT | -0.12 kcal/mol
113 | ACAGGCACGTGGGATG | -0.12 kcal/mol
114 | TGGTTCACGTGCTGAT | 0.35 kcal/mol
115 | ATTTTCACGTGACGTA | 0.21 kcal/mol
